# Assay results as given in article PMC10668032.
# Some of the results follow. At the low end of the ranking the order means little.
# Biological target: SIX1-Q177R homeodomain (UniProt Q15475)
# Test: universal protein binding microarray
# Settings: Universal all-10-mer PBM (8x60K, AMADID 030236), 300 nM GST-tagged protein, Alexa Fluor 488 anti-GST; buffer, salt, pH and temperature not stated; high values mean tight binding; most listed sequences are background and not binding sites; double strand, one strand shown
row,Sequence,binding signal
1,ACGACGTC,-0.226 E-score
2,GAATCGTA,0.00537 E-score
3,ACTTCATG,0.00637 E-score
4,ATGTATAG,-0.155 E-score
5,CAGCCTCA,-0.134 E-score
6,ATGACGCA,-0.0723 E-score
7,ACAAACGC,-0.142 E-score
8,AACGGCGT,0.07 E-score
9,ACCATAAC,0.0571 E-score
10,ACCATCTG,0.0261 E-score
11,CTTCAGAA,-0.0508 E-score
12,AATACTGA,-0.023 E-score
13,CCGGATTA,0.0614 E-score
14,GTGGCGCA,-0.0198 E-score
15,CTAAAAAA,-0.0342 E-score
16,GCGTGCCC,0.0457 E-score
17,TCGGTACA,0.219 E-score
18,ACCGAGAG,0.148 E-score
19,TATTGTGA,-0.0714 E-score
20,GTGGGTAA,0.107 E-score
21,TATCGAGA,0.0992 E-score
22,AACGGTGG,0.0341 E-score

row,Sequence,binding signal
1,CGGACTAG,-0.0947 E-score
2,CGGCGCAG,-0.181 E-score
3,CCACGCGA,0.106 E-score
4,ACTACCGC,-0.169 E-score
5,ATCACCCA,-0.0423 E-score
6,TAGGTAGA,-0.115 E-score
7,CCACGACC,-0.0272 E-score
8,AAAGCCTG,-0.232 E-score
9,TACCTGCA,-0.106 E-score
10,CCCTCTAC,0.205 E-score
11,ACCATGTC,-0.0764 E-score
12,CCCGTTCC,-0.0168 E-score
13,ATAGTAAT,-0.162 E-score
14,GAACCTGC,-0.00907 E-score
15,GGCACTAA,-0.0391 E-score
16,GGCGATAA,0.0231 E-score
17,AACCCAAC,0.0907 E-score
18,ACATTACG,-0.192 E-score
19,AACGGGTC,-0.069 E-score
20,AGGGCGTA,0.00412 E-score
21,GTCCAATA,-0.145 E-score
22,GAGTTACC,0.0503 E-score

row,Sequence,binding signal
1,GACAACCA,-0.176 E-score
2,AAAAACAC,0.368 E-score
3,GAAAATAA,-0.162 E-score
4,AAAGCTAC,-0.0444 E-score
5,ATACGAGG,-0.0394 E-score
6,ACCAAGCA,0.0458 E-score
7,GAGCCCTA,-0.14 E-score
8,CTCCTTAA,0.0345 E-score
9,AAGTCCCT,-0.178 E-score
10,CCAAGTTA,-0.0116 E-score
11,ACCAACCA,0.0679 E-score
12,ATGGAAAT,-0.0483 E-score
13,AAGCCTTG,-0.292 E-score
14,ATATTGTC,-0.247 E-score
15,GAAGACAC,0.38 E-score
16,CAGGAACA,0.259 E-score
17,CATACCCA,0.0643 E-score
18,CGACAAAA,-0.195 E-score
19,GAAGCAAA,-0.136 E-score
20,CCTATAAA,-0.0624 E-score
21,AGCGCTGC,-0.246 E-score
22,ACGTTGCT,-0.321 E-score

row,Sequence,binding signal
1,CTCCCTAC,0.046 E-score
2,GATGGGTA,0.118 E-score
3,CTAGGCAA,-0.122 E-score
4,ATTGATCA,-0.229 E-score
5,CCTGATCC,0.0875 E-score
6,TTAGCTAA,-0.162 E-score
7,CCTCAGTA,-0.128 E-score
8,ACCCTCCC,0.211 E-score
9,AGTGATCA,0.0118 E-score
10,AGGGGCAC,0.0599 E-score
11,GATTGAAA,-0.233 E-score
12,AAGCGTCG,-0.133 E-score
13,AGGAAGTC,-0.337 E-score
14,ACGATTGG,0.0526 E-score
15,AATGAATC,-0.0763 E-score
16,AGTGGTAT,0.121 E-score
17,GGCACGCC,-0.117 E-score
18,CACAAGAA,-0.0351 E-score
19,TAAAACCA,0.0369 E-score
20,CCGCTTAA,-0.0821 E-score
21,CTGATGTA,-0.155 E-score
22,AATATGAA,-0.0409 E-score

row,Sequence,binding signal
1,GACACGGA,0.418 E-score
2,CCGCGCCA,0.0253 E-score
3,ACCGCTAC,0.108 E-score
4,TACAAGTA,0.101 E-score
5,TCACTAAA,-0.0158 E-score
6,CGTAGATC,-0.0924 E-score
7,AGCAAGAG,-0.195 E-score
8,CCTATTAA,-0.074 E-score
9,CGTGCTAA,-0.0232 E-score
10,AGTAAATA,-0.00499 E-score
11,GCATAAAC,0.184 E-score
12,AGAGTACG,-0.0487 E-score
13,TAAGTATA,-0.204 E-score
14,ACGTATGC,-0.123 E-score
15,ACAGCCGC,-0.192 E-score
16,CTGGCTGA,-0.1 E-score
17,ACGAGCAA,-0.0229 E-score
18,AAGAATTC,-0.147 E-score
19,CAGACGGG,-0.0152 E-score
20,CACCTAAC,0.128 E-score
21,AAGCTGCC,-0.254 E-score
22,ATATGGCA,-0.0524 E-score
